The values that follow come from the RNAGym collection of RNA variant scans (doi:10.7554/elife.90254).

To fix the notation:
B1: OR4K15 (parent)
chain: GUUAACGGUCAUAGGCCAUGGAAACUAGGAGCACCAUUUCGCUGCCAGUGAAGAAAUGAACAAAGAAAAUCUGGGCCAGGCAGGCAUCAAAAGAAAUAGUCUUGCGCUCAACCAGAAAGUCUGUAAUCAUUUUAAGGGUA

The source gives no read counts; variants with many changes may rest on few reads.

Variants of B1 are the subject of this data set. Description: self-cleavage, relative activity (ratio to wild type); higher = more cleavage; in vitro, sequencing; the parent is a self-cleaving ribozyme.
As for GUUAACGGUCAUAGGCCAUGGAAACUAGGAGCACCAUUUCGCUGCCAGUGAAGAAAUGAACAAAGAAAAUCUGGGCCAGGCAGGCAUCUAAAGAAAUAGUCCUGCGCUCAACCAGAAAGUCUGAAAUCAUUUUAAGGGUA [A89U U102C U124A], the self-cleavage came to 1.63.
With GUUAACGGUCAUAGGCCAUGGAAACUAGGAGCACCAUUUCGCUGCCAGUGAAGAAAUGAACAAAGAAAAUCUGGGCCAGGCAGGCAUCUAAAGAAAUAGUCUUGCGCUCAACCAGAAAGUCUGUAAUCAUUUUGGGGGUA [A89U A134G A135G] the figure was 1.17; with GUUAACGGUCAUAGGCCAUGGAAACUAGGAGCACCAUUUCGCUGCCAGUGAAGAAAUGAACAAAGAAAAUCUGGGCCAGGCAGGCAUCUAAAGAAAUAGUCUUGCGUUCAACCGGAAAGUCUGUAAUCAUUUUAAGGGUA [A89U C107U A114G], 0.01.
Take GUUAACGGUCAUAGGCCAUGGAAACUAGGAGCACCAUUUCGCUGCCAGUGAAGAAAUGAACAAAGAAAAUCUGGGCCAGGCAGGCAUCAGAAGAGAUGGUCUUGCGCUCAACCAGGAAGUCUGUAAUCAUUUUAAGGGUA [A90G A95G A98G A116G]: the self-cleavage was 0.5.
In the case of GUUAACGGUCAUAGGCCAUGGAAACUAGGAGCACCAUUUCGCUGCCAGUGAAGAAAUGAACAAAGAAAAUCUGGGCCAGGCAGGCAUCAGAAGAAAUAGUCUUGAGCUCAACCAGAAAGUCUGUAAUCAUAUUAAGGGUA [A90G C105A U131A], the self-cleavage is 0.02.
With GUUAACGGUCAUAGGCCAUGGAAACUAGGAGCACCAUUUCGCUGCCAGUGAAGAAAUGAACAAAGAAAAUCUGGGCCAGGCAGGCAUCACAAGAAAUAGUCCUGCGCCCAACCAGAAAGUCUGUAAUCAUUUUUAGGGUA [A90C U102C U108C A134U] the figure was 0; with GUUAACGGUCAUAGGCCAUGGAAACUAGGAGCACCAUUUCGCUGCCAGUGAAGAAAUGAACAAAGAAAAUCUGGGCCAGGCAGGCAUCAGAGGAAAUAGUCCUGCGCUCAACCAGAAAGUCUGUAAUCAUUUUAAGGGUA [A90G A92G U102C], 1.83.
With GUUAACGGUCAUAGGCCAUGGAAACUAGGAGCACCAUUUCGCUGCCAGUGAAGAAAUGAACAAAGAAAAUCUGGGCCAGGCAGGCAUCGAAAGAAAUAGUCUUGCGCUCAACCAGUAAGUCUGUAAUCAUUUCAAGGGUA [A89G A116U U133C] the figure was 0.66; with GUUAACGGUCAUAGGCCAUGGAAACUAGGAGCACCAUUUCGCUGCCAGUGAAGAAAUGAACAAAGAAAAUCUGGGCCAGGCAGGCAUCUAAAGAAAUAGUCUUGCGCUCAACCAGAGAGUCAGUAAUCAUUUUAAGGGUA [A89U A117G U122A], 2.03; with GUUAACGGUCAUAGGCCAUGGAAACUAGGAGCACCAUUUCGCUGCCAGUGAAGAAAUGAACAAAGAAAAUCUGGGCCAGGCAGGCAUCAGAAGAAAUAGUCUUGCGCUCACCCAGAAAGUCUGUAAUCAUUUUAAGGGCA [A90G A111C U139C], 0.01.
Take GUUAACGGUCAUAGGCCAUGGAAACUAGGAGCACCAUUUCGCUGCCAGUGAAGAAAUGAACAAAGAAAAUCUGGGCCAGGCAGGCAUCUAAAGAAAUAGUCUUGCGCUCAGCCAGAAAGUCUGUAAUCAUUUUAAGGGAA [A89U A111G U139A]: the self-cleavage came to 0.
Turning to GUUAACGGUCAUAGGCCAUGGAAACUAGGAGCACCAUUUCGCUGCCAGUGAAGAAAUGAACAAAGAAAAUCUGGGCCAGGCAGGCAUCAGAUGAAAUUGUCUUGCGCUCAACCAGAAAGUCUGUAAUCAUUUUAAGGGUA [A90G A92U A98U], the self-cleavage came out at 1.18.
Turning to GUUAACGGUCAUAGGCCAUGGAAACUAGGAGCACCAUUUCGCUGCCAGUGAAGAAAUGAACAAAGAAAAUCUGGGCCAGGCAGGCAUCAGAAGAAAUAGUCUUGCGCUCAACCAGAAAGUCUGUAGUCAUUGUAAGGGUA [A90G A126G U132G], the self-cleavage turned out to be 0.44.
Turning to GUUAACGGUCAUAGGCCAUGGAAACUAGGAGCACCAUUUCGCUGCCAGUGAAGAAAUGAACAAAGAAAAUCUGGGCCAGGCAGGCAUCGAAAGAAAAAGUCUUGCGCUCAACCCGAAAGUCUGUAAUCAUUUUAAGGGUA [A89G U97A A114C], the self-cleavage stood at 0.
On to GUUAACGGUCAUAGGCCAUGGAAACUAGGAGCACCAUUUCGCUGCCAGUGAAGAAAUGAACAAAGAAAAUCUGGGCCAGGCAGGCAUCAGAAGAAAUAGUCUUGCGCUCAACCAGAAAGUCUGUAAUCGCUUUAAGGGUA [A90G A129G U130C], for which the self-cleavage amounted to 0.26.
Take GUUAACGGUCAUAGGCCAUGGAAACUAGGAGCACCAUUUCGCUGCCAGUGAAGAAAUGAACAAAGAAAAUCUGGGCCAGGCAGGCAUCUAAGGAAAUAGUCUUGCGCUCAACCAGAAAGUCUGUAAUCACUUUAAGGGUA [A89U A92G U130C]: the self-cleavage stood at 1.43.
Turning to GUUAACGGUCAUAGGCCAUGGAAACUAGGAGCACCAUUUCGCUGCCAGUGAAGAAAUGAACAAAGAAAAUCUGGGCCAGGCAGGCAUCAGAAGAAGUAGUCUUGCGCUCGACCAGAAAGUCAGUAAUCAUUUUAAGGGUA [A90G A96G A110G U122A], the self-cleavage came to 0.1.
With GUUAACGGUCAUAGGCCAUGGAAACUAGGAGCACCAUUUCGCUGCCAGUGAAGAAAUGAACAAAGAAAAUCUGGGCCAGGCAGGCAUCUAAAGAAAUAGUCUUGCGCUCAACCAGAAAGUCUGUAAUCAUUUUGAGGGCA [A89U A134G U139C], the self-cleavage stood at 0.61.
As to GUUAACGGUCAUAGGCCAUGGAAACUAGGAGCACCAUUUCGCUGCCAGUGAAGAAAUGAACAAAGAAAAUCUGGGCCAGGCAGGCAUCAUAGGAAAUAGUCUUGCGCUCAACCAGAAAGUCUGUAAUCAUUAUAAGGGUA [A90U A92G U132A], the self-cleavage amounted to 2.32.
With GUUAACGGUCAUAGGCCAUGGAAACUAGGAGCACCAUUUCGCUGCCAGUGAAGAAAUGAACAAAGAAAAUCUGGGCCAGGCAGGCAUCAGAAGAAAUAGUCUCGCGCUCAACCAGAAAGUCCGUAAUCAUUUUAAGGGUA [A90G U103C U122C] the figure was 0.23; with GUUAACGGUCAUAGGCCAUGGAAACUAGGAGCACCAUUUCGCUGCCAGUGAAGAAAUGAACAAAGAAAAUCUGGGCCAGGCAGGCAUCGAAAGAAAUAGUCCUGCGCCCAACCAGAAAGUCUGUAAUCAUUUUAAGGGUA [A89G U102C U108C], 0.01.
